# The other results are listed elsewhere or left out.
# B1: PX9937A-bvu-521-23-521 (Bacteroides vulgatus) (protein)
# chain: LDLAPEDYYGAGNFWKEASQPKAFMLGLHAQLRSYYDMFYTLGELRGGTQRVGTSSLNTSLNYADIRSQNISEDIPGISNWNGLYSPIMQVNHFIQEVENGCTFLDDATRSRYLGQAYGMRALYYFMLYRTFGGVPLITKVDILDGKPSADKFYVERATPEATMEFIKADINKSENYFGNNTSFDAYDWSRYATLMLKAEIYMWAAKVSITGFTATGATDLQTAKTALSGIIGHFELMDNFASIFSCDNKKNTEIIFAMPFIEGEASNDGGRFLYQDAVFLGQAYGRNGKVIEKDTLNLKGTGGVFRDEYTEDFWKTFKEGDSRRDATFMEYYMKNDNGTLSEFGCVMKKRIGTINSNDNRIYISDIPVYRYADALLMMAEIENGLNNPCASYINEVRKRAYGDTFEENKYTEGSYAENELAILQERDKEFVSEGKRWFDVLRMHDASGRSLVFSANANYPGTNPILGTEEAYKMLWPVNIGTLNVNPLLTQTPGYGKK
# What was measured:
# Assay in all cases: glycan array binding signal (z-score within array); higher = stronger binding
# Conditions in all cases: glycan notation: IUPAC condensed, linker removed
# [1] = target: Neu5Ac(a2-3)Gal(b1-4)GlcNAc(b1-6)GalNAc
# Outline: (§1)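 Glycan array data came from 3228 arrays in the Consortium for Functional Glycomics database, and only arrays with an available protein sequence were kept. Glycan names were put into IUPAC-condensed notation, and columns mapping to the same glycan were averaged. The binding signal is a within-array Z-score, averaged across arrays of one protein sequence run at different concentrations or buffers and across linkers. A negative Z-score can be read as non-binding.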
# [2] = target: Neu5Ac(a2-3)Gal(b1-4)GlcNAc(b1-6)[Gal(b1-3)]GalNAc
# Outline: as §1
# [3] = target: Neu5Ac(a2-3)Gal(b1-4)GlcNAc(b1-6)[Neu5Ac(a2-3)Gal(b1-3)]GalNAc
# Outline: as §1
# [4] = target: Neu5Ac(a2-3)Gal(b1-4)GlcNAc6S
# Outline: as §1
# [5] = target: Neu5Ac(a2-3)Gal(b1-4)[Fuc(a1-3)]GlcNAc
# Outline: as §1
# [6] = target: Neu5Ac(a2-3)Gal(b1-4)[Fuc(a1-3)]GlcNAc(b1-2)Man
# Outline: as §1
# [7] = target: Neu5Ac(a2-3)Gal(b1-4)[Fuc(a1-3)]GlcNAc(b1-3)Gal
# Outline: as §1
# [8] = target: Neu5Ac(a2-3)Gal(b1-4)[Fuc(a1-3)]GlcNAc(b1-3)Gal(b1-4)GlcNAc
# Outline: as §1
# [9] = target: Neu5Ac(a2-3)Gal(b1-4)[Fuc(a1-3)]GlcNAc(b1-3)Gal(b1-4)[Fuc(a1-3)]GlcNAc(b1-3)Gal(b1-4)[Fuc(a1-3)]GlcNAc
# Outline: as §1
# [10] = target: Neu5Ac(a2-3)Gal(b1-4)[Fuc(a1-3)]GlcNAc(b1-3)GalNAc
# Outline: as §1
# [11] = target: Neu5Ac(a2-3)Gal(b1-4)[Fuc(a1-3)]GlcNAc(b1-6)[Gal(b1-3)]GalNAc
# Outline: as §1
# [12] = target: Neu5Ac(a2-3)Gal(b1-4)[Fuc(a1-3)]GlcNAc(b1-6)[Neu5Ac(a2-3)Gal(b1-3)]GalNAc
# Outline: as §1
# [13] = target: Neu5Ac(a2-3)Gal(b1-4)[Fuc(a1-3)]GlcNAc6S
# Outline: as §1
# [14] = target: Neu5Ac(a2-3)Gal6S(b1-4)GlcNAc
# Outline: as §1
# [15] = target: Neu5Ac(a2-3)Gal6S(b1-4)[Fuc(a1-3)]GlcNAc
# Outline: as §1
# [16] = target: Neu5Ac(a2-3)GalNAc
# Outline: as §1
# [17] = target: Neu5Ac(a2-3)GalNAc(b1-4)GlcNAc
# Outline: as §1
# [18] = target: Neu5Ac(a2-3)[GalNAc(b1-4)]Gal(b1-4)Glc
# Outline: as §1
# [19] = target: Neu5Ac(a2-3)[GalNAc(b1-4)]Gal(b1-4)GlcNAc
# Outline: as §1
# [20] = target: Neu5Ac(a2-3)[GalNAc(b1-4)]Gal(b1-4)GlcNAc(b1-3)GalNAc
# Outline: as §1
# [21] = target: Neu5Ac(a2-3)[Neu5Ac(a2-6)]GalNAc
# Outline: as §1
# [22] = target: Neu5Ac(a2-6)Gal
# Outline: as §1
# [23] = target: Neu5Ac(a2-6)Gal(b1-3)GlcNAc(b1-3)[Gal(b1-4)GlcNAc(b1-6)]Gal(b1-4)Glc
# Outline: as §1
# [24] = target: Neu5Ac(a2-6)Gal(b1-4)Glc
# Outline: as §1
# [25] = target: Neu5Ac(a2-6)Gal(b1-4)GlcNAc
# Outline: as §1
# [26] = target: Neu5Ac(a2-6)Gal(b1-4)GlcNAc(b1-2)Man
# Outline: as §1
# [27] = target: Neu5Ac(a2-6)Gal(b1-4)GlcNAc(b1-2)Man(a1-3)Man(b1-4)GlcNAc(b1-4)GlcNAc
# Outline: as §1
# [28] = target: Neu5Ac(a2-6)Gal(b1-4)GlcNAc(b1-2)Man(a1-3)[Gal(b1-4)GlcNAc(b1-2)Man(a1-6)]Man(b1-4)GlcNAc(b1-4)GlcNAc
# Outline: as §1
# [29] = target: Neu5Ac(a2-6)Gal(b1-4)GlcNAc(b1-2)Man(a1-3)[GlcNAc(b1-2)Man(a1-6)]Man(b1-4)GlcNAc(b1-4)GlcNAc
# Outline: as §1
# [30] = target: Neu5Ac(a2-6)Gal(b1-4)GlcNAc(b1-2)Man(a1-3)[GlcNAc(b1-4)][Neu5Ac(a2-6)Gal(b1-4)GlcNAc(b1-2)Man(a1-6)]Man(b1-4)GlcNAc(b1-4)GlcNAc
# Outline: as §1
# [31] = target: Neu5Ac(a2-6)Gal(b1-4)GlcNAc(b1-2)Man(a1-3)[Man(a1-6)]Man(b1-4)GlcNAc(b1-4)GlcNAc
# Outline: as §1
binder,measurement,setting,value
B1,glycan array binding signal (z-score),[1],-0.47
same,glycan array binding signal (z-score),[2],-0.546
same,glycan array binding signal (z-score),[3],-0.376
same,glycan array binding signal (z-score),[4],-0.336
same,glycan array binding signal (z-score),[5],-0.292
same,glycan array binding signal (z-score),[6],-0.364
same,glycan array binding signal (z-score),[7],0.036
same,glycan array binding signal (z-score),[8],0.101
same,glycan array binding signal (z-score),[9],-0.051
same,glycan array binding signal (z-score),[10],0.29
same,glycan array binding signal (z-score),[11],-0.51
same,glycan array binding signal (z-score),[12],0.212
same,glycan array binding signal (z-score),[13],0.059
same,glycan array binding signal (z-score),[14],-0.286
same,glycan array binding signal (z-score),[15],-0.425
same,glycan array binding signal (z-score),[16],0.578
same,glycan array binding signal (z-score),[17],0.321
same,glycan array binding signal (z-score),[18],0.944
same,glycan array binding signal (z-score),[19],-0.075
same,glycan array binding signal (z-score),[20],0.377
same,glycan array binding signal (z-score),[21],-0.584
same,glycan array binding signal (z-score),[22],0.054
same,glycan array binding signal (z-score),[23],-0.527
same,glycan array binding signal (z-score),[24],-0.465
same,glycan array binding signal (z-score),[25],0.247
same,glycan array binding signal (z-score),[26],-0.33
same,glycan array binding signal (z-score),[27],-0.145
same,glycan array binding signal (z-score),[28],-0.295
same,glycan array binding signal (z-score),[29],-0.698
same,glycan array binding signal (z-score),[30],0.052
same,glycan array binding signal (z-score),[31],0.002
